From the supplement of paper PMC4604168 (melanoma cell lines)
This is one part of the list. Most values come without repeats; read them as rough.

Columns and labels:
Assay in all cases: cell count relative to DMSO control; melanoma cells; higher = more viable cells
Details in all cases: library dose: standard library concentration; 72 h
A101D = system: A101D
A2058 = system: A2058
A375 = system: A375
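Also: cells treated in 1,536-well plates, then fixed and DAPI-stained, with nuclei counted from automated high-throughput microscope images.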

| SMILES | cell count (A101D) [%] | cell count (A2058) [%] | cell count (A375) [%] |
| --- | --- | --- | --- |
| CCCCCCCCc1ccc(CCC(N)(CO)CO)cc1 [fingolimod] + CN1CCN(c2ccc3nc(-c4c(N)c5c(F)cccc5[nH]c4=O)[nH]c3c2)CC1 [Dovitinib] (first compound 10 µM, partner dose 0.5 µM) | 4.3 | 3.27 | 21.4 |
| NC(=O)c1ccc(N(C(N)=O)c2c(F)cccc2F)nc1-c1ccc(F)cc1F + COc1cc2c(Oc3ccc4[nH]c(C)cc4c3F)ncnc2cc1OCCCN1CCCC1 [cediranib] (first compound 2 µM, partner dose 2 µM) | 99.3 | 93.3 | 132 |
| CCCCCCCCc1ccc(CCC(N)(CO)CO)cc1 [fingolimod] + C#Cc1cccc(Nc2ncnc3cc(OCCOC)c(OCCOC)cc23)c1 [erlotinib] (first compound 10 µM, partner dose 4 µM) | 3.75 | 7.93 | 35.2 |
| Cc1ccc(NC(=O)c2cccc(N(C)C)c2)cc1NC(=O)c1ccc(O)cc1 + CO[C@@H]1[C@H](N(C)C(=O)c2ccccc2)C[C@H]2O[C@]1(C)n1c3ccccc3c3c4c(c5c6ccccc6n2c5c31)C(=O)NC4 [Midostaurin] (first compound 10 µM, partner dose 0.4 µM) | 73.3 | 53.8 | 66 |
| Cc1ccc(NC(=O)c2cccc(N(C)C)c2)cc1NC(=O)c1ccc(O)cc1 + OCCn1cc(-c2cnc3nnn(Cc4ccc5ncccc5c4)c3n2)cn1 [PF04217903] (first compound 10 µM, partner dose 5 µM) | 114 | 91.3 | 112 |
| NC(=O)c1ccc(N(C(N)=O)c2c(F)cccc2F)nc1-c1ccc(F)cc1F + CO[C@H]1C[C@@H]2CC[C@@H](C)[C@@](O)(O2)C(=O)C(=O)N2CCCC[C@H]2C(=O)O[C@H]([C@H](C)C[C@@H]2CC[C@@H](OCCO)[C@H](OC)C2)CC(=O)[C@H](C)/C=C(\C)[C@@H](O)[C@@H](OC)C(=O)[C@H](C)C[C@H](C)/C=C/C=C/C=C/1C [everolimus] (first compound 2 µM, partner dose 0.1 µM) | 91.2 | 64.5 | 84.6 |
| CCCCCCCCc1ccc(CCC(N)(CO)CO)cc1 [fingolimod] + Cc1cc(N2CCOCC2)cc2[nH]c(-c3c(NC[C@@H](O)c4cccc(Cl)c4)cc[nH]c3=O)nc12 [BMS536924] (first compound 10 µM, partner dose 1 µM) | 4.68 | 4.27 | 29.3 |
| CCCCCCCCc1ccc(CCC(N)(CO)CO)cc1 [fingolimod] + Clc1ccc(Nc2nnc(Cc3ccncc3)c3ccccc23)cc1 [vatalanib] (first compound 10 µM, partner dose 10 µM) | 3.3 | 5.09 | 32 |
| CCCCCCCCc1ccc(CCC(N)(CO)CO)cc1 [fingolimod] + CCCS(=O)(=O)Nc1ccc(F)c(C(=O)c2c[nH]c3ncc(Cl)cc23)c1F [PLX4720] (first compound 10 µM, partner dose 0.4 µM) | 6.26 | 10.3 | 71.1 |
| NC(=O)c1ccc(N(C(N)=O)c2c(F)cccc2F)nc1-c1ccc(F)cc1F + COc1ccc(C2=N[C@@H](c3ccc(Cl)cc3)[C@@H](c3ccc(Cl)cc3)N2C(=O)N2CCNC(=O)C2)c(OC(C)C)c1 [Nutlin-3] (first compound 2 µM, partner dose 0.5 µM) | 73.6 | 90.8 | 104 |
| CN(NC(=O)CC(=O)NN(C)C(=S)c1ccccc1)C(=S)c1ccccc1 + N#Cc1c(O)c2c(-c3ccc(-c4ccccc4O)cc3)csc2[nH]c1=O [A769662] (first compound 0.03 µM, partner dose 10 µM) | 42.2 | 19.7 | 131 |
| CCCCCCCCc1ccc(CCC(N)(CO)CO)cc1 [fingolimod] + OCCn1cc(-c2cnc3nnn(Cc4ccc5ncccc5c4)c3n2)cn1 [PF04217903] (first compound 10 µM, partner dose 5 µM) | 9.01 | 5.71 | 79.1 |
| NC(=O)c1ccc(N(C(N)=O)c2c(F)cccc2F)nc1-c1ccc(F)cc1F + Cn1cncc1[C@@](N)(c1ccc(Cl)cc1)c1ccc2c(c1)c(-c1cccc(Cl)c1)cc(=O)n2C [tipifarnib] (first compound 2 µM, partner dose 0.05 µM) | 72.5 | 91.8 | 87.5 |
| CCCCCCCCc1ccc(CCC(N)(CO)CO)cc1 [fingolimod] + C=CCNC1=C2C[C@@H](C)C[C@H](OC)[C@H](O)[C@@H](C)/C=C(\C)[C@H](OC(N)=O)[C@@H](OC)/C=C\C=C(/C)C(=O)NC(=CC1=O)C2=O [Tanespimycin] (first compound 10 µM, partner dose 0.01 µM) | 7.82 | 8 | 44.1 |
| CCCCCCCCc1ccc(CCC(N)(CO)CO)cc1 [fingolimod] + C=CCn1c(=O)c2cnc(Nc3ccc(N4CCN(C)CC4)cc3)nc2n1-c1cccc(C(C)(C)O)n1 [MK1775] (first compound 10 µM, partner dose 0.1 µM) | 4 | 2.63 | 41.5 |
| NC(=O)c1ccc(N(C(N)=O)c2c(F)cccc2F)nc1-c1ccc(F)cc1F + Cc1cc(N2CCOCC2)cc2[nH]c(-c3c(NC[C@@H](O)c4cccc(Cl)c4)cc[nH]c3=O)nc12 [BMS536924] (first compound 2 µM, partner dose 1 µM) | 88.7 | 93.3 | 101 |
| NC(=O)c1ccc(N(C(N)=O)c2c(F)cccc2F)nc1-c1ccc(F)cc1F + Nc1cccc2c1CN(C1CCC(=O)NC1=O)C2=O [lenalidomide] (first compound 2 µM, partner dose 5 µM) | 120 | 96.4 | 113 |
| CCCCCCCCc1ccc(CCC(N)(CO)CO)cc1 [fingolimod] + CC(C)C[C@H](NC(=O)[C@H](Cc1ccccc1)NC(=O)c1cnccn1)B(O)O [Bortezomib] (first compound 10 µM, partner dose 0.005 µM) | 6.38 | 4.5 | 47.6 |
| CCCCCCCCc1ccc(CCC(N)(CO)CO)cc1 [fingolimod] + O=C(Nc1cccc(Cl)c1)Nc1ncc(CCNc2ncnc3ccsc23)s1 [SNS314] (first compound 10 µM, partner dose 0.004 µM) | 6.72 | 4.58 | 63.7 |

| SMILES | cell count (A101D) [%] | cell count (A2058) [%] | cell count (A375) [%] |
| --- | --- | --- | --- |
| NC(=O)c1ccc(N(C(N)=O)c2c(F)cccc2F)nc1-c1ccc(F)cc1F + COc1ccc(Cl)c(Nc2nc3ccccc3nc2NS(=O)(=O)c2cccc(NC(=O)C(C)(C)N)c2)c1 [XL147] (first compound 2 µM, partner dose 4 µM) | 98.7 | 93.5 | 86.5 |
| NC(=O)c1ccc(N(C(N)=O)c2c(F)cccc2F)nc1-c1ccc(F)cc1F + NCC(=O)Nc1ccc(-n2nc(C(F)(F)F)cc2-c2ccc3c(ccc4ccccc43)c2)cc1 [OSU03012] (first compound 2 µM, partner dose 5 µM) | 77.8 | 111 | 62.4 |
| CCCCCCCCc1ccc(CCC(N)(CO)CO)cc1 [fingolimod] + NCC(=O)Nc1ccc(-n2nc(C(F)(F)F)cc2-c2ccc3c(ccc4ccccc43)c2)cc1 [OSU03012] (first compound 10 µM, partner dose 5 µM) | 3.71 | 2.08 | 11.9 |
| NC(=O)c1ccc(N(C(N)=O)c2c(F)cccc2F)nc1-c1ccc(F)cc1F + Cc1nc(Nc2ncc(C(=O)Nc3c(C)cccc3Cl)s2)cc(N2CCN(CCO)CC2)n1 [dasatanib] (first compound 2 µM, partner dose 0.02 µM) | 86.5 | 80 | 85.4 |
| NC(=O)c1ccc(N(C(N)=O)c2c(F)cccc2F)nc1-c1ccc(F)cc1F + CC(C)C[C@H](NC(=O)[C@H](Cc1ccccc1)NC(=O)c1cnccn1)B(O)O [Bortezomib] (first compound 2 µM, partner dose 0.005 µM) | 11.1 | 15.2 | 88.5 |
| NC(=O)c1ccc(N(C(N)=O)c2c(F)cccc2F)nc1-c1ccc(F)cc1F + OCCn1cc(-c2cnc3nnn(Cc4ccc5ncccc5c4)c3n2)cn1 [PF04217903] (first compound 2 µM, partner dose 5 µM) | 95.6 | 89.2 | 105 |
| NC(=O)c1ccc(N(C(N)=O)c2c(F)cccc2F)nc1-c1ccc(F)cc1F + C=CCn1c(=O)c2cnc(Nc3ccc(N4CCN(C)CC4)cc3)nc2n1-c1cccc(C(C)(C)O)n1 [MK1775] (first compound 2 µM, partner dose 0.1 µM) | 56.8 | 101 | 54.2 |
| CCCCCCCCc1ccc(CCC(N)(CO)CO)cc1 [fingolimod] + NC1(c2ccc(-c3nc4ccn5c(=O)[nH]nc5c4cc3-c3ccccc3)cc2)CCC1 [MK2206] (first compound 10 µM, partner dose 2 µM) | 11.6 | 9.29 | 30.6 |
| NC(=O)c1ccc(N(C(N)=O)c2c(F)cccc2F)nc1-c1ccc(F)cc1F + CC(C)CCN1c2nc(Nc3cc(F)c(O)c(F)c3)ncc2N(C)C(=O)C1C [BID1870] (first compound 2 µM, partner dose 1 µM) | 69.4 | 84.9 | 94.2 |
| Cc1ccc(NC(=O)c2cccc(N(C)C)c2)cc1NC(=O)c1ccc(O)cc1 + Cc1cc(N2CCOCC2)cc2[nH]c(-c3c(NC[C@@H](O)c4cccc(Cl)c4)cc[nH]c3=O)nc12 [BMS536924] (first compound 10 µM, partner dose 1 µM) | 96.9 | 94.2 | 121 |
| CCCCCCCCc1ccc(CCC(N)(CO)CO)cc1 [fingolimod] + Cc1cc(Nc2cc(N3CCN(C)CC3)nc(/C=C/c3ccccc3)n2)n[nH]1 [ENMD2076] (first compound 10 µM, partner dose 0.2 µM) | 13.6 | 10.4 | 79.2 |
| NC(=O)c1ccc(N(C(N)=O)c2c(F)cccc2F)nc1-c1ccc(F)cc1F + OCc1c[nH]c2ccccc12 [Indole-3-carbinol] (first compound 2 µM, partner dose 4 µM) | 96.5 | 108 | 71.6 |
| CCCCCCCCc1ccc(CCC(N)(CO)CO)cc1 [fingolimod] + Cc1ccc(NC(=O)c2cccc(N(C)C)c2)cc1NC(=O)c1ccc(O)cc1 [ZM336372] (first compound 10 µM, partner dose 10 µM) | 5.22 | 2.54 | 43.6 |
| NC(=O)c1ccc(N(C(N)=O)c2c(F)cccc2F)nc1-c1ccc(F)cc1F + CC1(C)NC(=O)N(c2ccc([N+](=O)[O-])c(C(F)(F)F)c2)C1=O [nilutamide] (first compound 2 µM, partner dose 5 µM) | 99.9 | 105 | 112 |
| NC(=O)c1ccc(N(C(N)=O)c2c(F)cccc2F)nc1-c1ccc(F)cc1F + COc1cc(Nc2ncc(F)c(Nc3ccc4c(n3)NC(=O)C(C)(C)O4)n2)cc(OC)c1OC [Tamatinib] (first compound 2 µM, partner dose 2 µM) | 26.7 | 82.9 | 98.4 |
| CCCCCCCCc1ccc(CCC(N)(CO)CO)cc1 [fingolimod] + O=C(O)c1ccc(-c2c[nH]c3ncc(-c4ccccc4)cc23)cc1C1CCCC1 [GSK650394] (first compound 10 µM, partner dose 0.8 µM) | 3.59 | 3.9 | 34.5 |
| NC(=O)c1ccc(N(C(N)=O)c2c(F)cccc2F)nc1-c1ccc(F)cc1F + CS(=O)(=O)c1ccc(C(=O)Nc2ccc(Cl)c(-c3ccccn3)c2)c(Cl)c1 [vismodegib] (first compound 2 µM, partner dose 5 µM) | 126 | 143 | 106 |
| CCCCCCCCc1ccc(CCC(N)(CO)CO)cc1 [fingolimod] + COc1ccc(Cl)c(Nc2nc3ccccc3nc2NS(=O)(=O)c2cccc(NC(=O)C(C)(C)N)c2)c1 [XL147] (first compound 10 µM, partner dose 4 µM) | 13.8 | 8.81 | 74.4 |
| CCCCCCCCc1ccc(CCC(N)(CO)CO)cc1 [fingolimod] + Cn1nnc2c(C(N)=O)ncn2c1=O [temozolomide] (first compound 10 µM, partner dose 10 µM) | 14.9 | 10.6 | 93.4 |
